Data reported in PubChem BioAssay AID904 (National Center for Advancing Translational Sciences (NCATS), 2007).
Screen size: about 55,000 compounds; about 530 (0.96%) were called active. This list was built around the results that the source calls inconclusive (neither active nor inactive); the mix of calls is not that of the screen. The call rests on the fitted dose curve; in most records, active means well fitted cell-killing curve with a large enough effect; inconclusive means small, poorly fitted or top-dose-only effect; inactive means no such curve, though single readings can be large or run the other way. Where the call is inconclusive, the potency comes from a doubtful curve fit.

test: qHTS Screen for Compounds that Selectively Target Cancer Cells with p53 Mutations: Cytotoxicity of p53 Null Cells at the Nonpermissive Temperature; details: H1299 p53-null (neo) cells, 39C, ATPlite viability, 24 h; series mostly up to 46.1 µM; further: nearly all actives have a fitted effect of over 50% in size
Source text: NIH Chemical Genomics Center [NCGC] NIH Molecular Libraries Screening Centers Network [MLSCN] MLSCN Grant: 1 X01 MH079844-01 Assay Submitter (PI): Dr. SUN, YI, University of Michigan NCGC Assay Overview: Synthetic Lethal Screen for Compounds to Kill Cancer Cells with p53 Mutation. Tumor suppressor gene p53 serves as a major cellular barrier against tumorigenesis. […] The goal of this screening is to identify small molecule probes that selectively kill cancer cells with mutations in p53. This screening was carried out using two lines of H1299 lung cancer cells. The H1299-p53 A138V line express a temperature sensitive p53 mutant (p53ts) in which the mutant p53 protein (A138V) is in the mutant confirmation when grown at 39C (the nonpermissive temperature) and in the wild type conformation when grown at 32C (the permissive temperature). A H1299-neo line (p53 null) grown at both 39C and 32C were used as counter-screens to filter out false positive associated with temperature shifting. The small molecular compounds that selectively target mutant p53-containing cancer cells were selected as candidate probes for further study. A cytotoxicity assay based on the measurement of ATP contents in cells was used in this screen. Concentration-responses of all the compounds in the library collection were determined in qHTS using the cell lines and temperature conditions as above.
NCGC Assay Protocol Summary: Both the H1299-p53A138V and H1299-neo cell lines were provided by Dr.Yi Sun, a PI at the University Michigan. The cells were maintained and cultured at 37C. The resuspended frozen cells were used to plate the cells in the 1536-well assay plates at a density of 600 cells per well in 5 ul medium. The assay plates with the cells were incubated at 37C for 16 to 30 hours before the experiments. The library compounds in DMSO solution were added to the cells in assay plates and incubated 24 hours at 39C (for mutant p53 conformation) or 32C (for normal p53 conformation as control). An ATP_lite assay kit (PerkinElmer) was used to determine the cell viability. Tomaxifen (100uM) was used as the positive control for cell killing. Data were normalized to the controls for basal activity (DMSO only) and 100% killing (100uM tamoxifen). AC50 values were determined from concentration-response data modeled with the standard Hill equation. P53 assay protocol: 1. Reagent; 5 uL H1299-p53A138V or H1299-neo cell cells/well 2. Time; overnight; 37C incubation 3. Compounds; 23 nL; 5.9 nM to 46 uM 4. Controls; 23 nL; Tamoxifen 100 uM 5. Time; 24 hr; 39C incubation 6. Reagent; 3 uL; ATP_Lite reagent 7. Time; 20 min; Room Temperature 8. Detection; Luminescence; Viewlux plate reader Keywords: p53, synthetic lethal, cancer, cell viability, cytotoxicity, H1299 cell line, luminescence, MLSMR, MLSCN, NIH Roadmap, qHTS, NCGC
Potency means the concentration at half of the fitted maximal effect; tags describe the fitted curve by direction and shape.

| SMILES | Potency |
| --- | --- |
| COc1ccccc1-c1cc(C(F)(F)F)nc(S(=O)(=O)CCCC(=O)Nc2cc(Br)ccc2O)n1 | inconclusive: 35.5 µM [cytotoxic, single point] |
| CCCN1C(C(=O)c2ccccc2)=C(OC(=O)c2ccc(F)cc2)c2ccccc2S1(=O)=O | inconclusive: 10 µM [cytotoxic, single point] |
| CN(C)S(=O)(=O)Nc1ccc(-c2cn3ccsc3n2)cc1 | inconclusive: 25.1 µM [cytotoxic, partial curve] |
| CCCOC(=O)C(C)n1nnc2sc(-c3ccccc3)cc2c1=O (configuration not stated) | inconclusive: 31.6 µM [cytotoxic, single point] |
| CCOc1ccc(NC2SC(=O)N(Cc3ccccc3)C2=O)cc1 (configuration not stated) | inactive |
| O=C(Nc1cccs1)Nc1ccc(F)cc1F | inactive |
| Cc1ccc(NC(=O)CCc2c(C)nn(-c3ccc(N4CCOCC4)nn3)c2C)c(C)c1 | inconclusive: 0.126 µM [cytotoxic, full curve, poor fit] |
| COc1ccc(-n2nc3ccc(NC(=O)c4ccc(C#N)cc4F)cc3n2)cc1Cl | inconclusive: 0.02 µM [cytotoxic, full curve, poor fit] |
| Cc1nn(C(C)C(=O)NC2CCC(C)CC2)c(=O)c2c1sc1ccccc12 (configuration not stated) | active: 20 µM |
| CCOc1ccc(C2C(C(=O)Nc3ccccc3)=C(C)Nc3nc(SCc4cccc(OC)c4)nn32)cc1 (configuration not stated) | inactive |
| O=C(NCc1ccccc1)c1nc(S(=O)(=O)Cc2ccc(F)cc2)ncc1Cl | inconclusive: 14.1 µM [cytotoxic, partial curve, poor fit] |
| COc1ccc(C2=C(Nc3ccc(Br)c(C)c3)c3ccccc3C2=O)cc1 | inconclusive: 25.1 µM [cytotoxic, single point] |
| C=CCN1C=CC(=C/C=C(/C#N)C(=O)OCC)C=C1 | inconclusive: 7.08 µM [cytotoxic, partial curve] |
| CCOc1cccc2sc(N3CCN(C(=O)c4ccc5c(c4)CCCC5)CC3)nc12 | inactive |
| CCN(CC)S(=O)(=O)c1ccc(NC(=O)c2cc3ccc4cccnc4c3[nH]2)cc1 | inconclusive: 12.6 µM [cytotoxic, partial curve, poor fit] |
| COc1ccc(Cl)cc1NC(=O)NCCn1c(=O)oc2ccc(C)cc21 | inconclusive: 17.8 µM [cytotoxic, single point] |
| CCn1cc2nc(SCc3cccc(C(F)(F)F)c3)n(Cc3ccc(Cl)cc3)c(=O)c2n1 | inactive |
| Cc1ccc(Cl)cc1-n1nnc(-c2nsc(NC(=O)c3ccccc3Cl)n2)c1C | inactive |
| COCCn1ccc2c(OCC(=O)Nc3ccccc3F)cccc2c1=O | inconclusive: 6.31 µM [cytotoxic, full curve, poor fit] |
| Cc1cccc(-c2nc(CSCC(=O)NCCc3ccc(Cl)cc3)c(C)o2)c1 | inconclusive: 17.8 µM [cytotoxic, single point] |
| COc1cc(NC(=O)c2nc3ccccc3nc2N2CCCCC2)cc(OC)c1OC | inconclusive: 17.8 µM [cytotoxic, partial curve] |

| SMILES | Potency |
| --- | --- |
| O=C(CSc1nc(-c2ccc(F)cc2)[nH]c1-c1ccccc1)Nc1ccccc1 | inconclusive: 11.2 µM [cytotoxic, partial curve, poor fit] |
| COc1ccc(Cl)cc1NC(=O)Cn1nc(Cc2ccncc2)c2ccccc2c1=O | inconclusive: 14.1 µM [cytotoxic, single point] |
| O=c1oc2cc(O)ccc2cc1-c1nnc(Nc2ccccc2F)s1 | inconclusive: 7.94 µM [cytotoxic, full curve] |
| COc1ccc(N2CCN(S(=O)(=O)CCNC(=O)COc3ccccc3F)CC2)cc1 | inconclusive: 0.02 µM [cytotoxic, full curve, poor fit] |
| Cc1cccc(OCC(O)Cn2c(=N)n(CCN3CCCCC3)c3ccccc32)c1 (configuration not stated) | inconclusive: 11.2 µM [cytotoxic, partial curve] |
| CCNC(=O)C1CCN(c2nnc(C)c3c(C)n(-c4ccc(OC)cc4)nc23)CC1 | inactive |
| Cc1cccc(NC(c2ccccc2C)c2ccc3ccc(C)nc3c2O)n1 (configuration not stated) | inconclusive: 5.62 µM [cytotoxic, partial curve] |
| CCCCn1c(NCc2cc(Br)ccc2O)nc2ccccc21 | inconclusive: 22.4 µM [cytotoxic, single point] |
| COc1ccc2nc(NC(=O)c3nc(SCc4ccccc4F)ncc3Cl)sc2c1 | inactive |
| COc1cccc(-c2cc(C(=O)Nc3ccn(Cc4ccc(C)cc4)n3)no2)c1 | inconclusive: 7.94 µM [cytotoxic, partial curve] |
| O=C(Nc1cc(Cl)cc(Cl)c1)c1ccc(F)c(S(=O)(=O)NC2CCCCC2)c1 | active: 20 µM |
| CS(=O)(=O)N1CCCc2cc(C(=O)Nc3cccc(C(F)(F)F)c3)ccc21 | inconclusive: 17.8 µM [cytotoxic, single point] |
| Cc1ccc(OCC(=O)Nc2cccc(C(=O)OCc3cc(=O)n4nc(C)sc4n3)c2)cc1 | inconclusive: 7.94 µM [cytotoxic, partial curve] |
| Cc1ccccc1-c1nc(CS(=O)(=O)CC(=O)Nc2cc(Cl)cc(Cl)c2)c(C)o1 | inconclusive: 31.6 µM [cytotoxic, single point] |
| O=C(CSc1ncc(-c2ccccc2)[nH]1)Nc1cccc(C(F)(F)F)c1 | inconclusive: 28.2 µM [cytotoxic, single point] |
| COc1ccc(CNC(=O)CSc2n[nH]c(-c3ccc(OC)cc3)n2)cc1 | inconclusive: 5.01 µM [cytotoxic, full curve, poor fit] |
| CCn1c2c(c(=O)n3ncc(C(=O)Nc4cccc(Cl)c4C)c13)CN(Cc1ccc(OC)cc1)CC2 | inconclusive: 1.12 µM [cytotoxic, partial curve] |
| CCCOc1ccc(NC(=O)CC2C(=O)N(C)C(=S)N2Cc2cccs2)cc1 (configuration not stated) | inconclusive: 12.6 µM [cytotoxic, partial curve, poor fit] |
| COc1ccc(NC(=O)CC2C(=O)N(c3ccc(C)cc3)C(=O)N2C2CCCCC2)cc1 (configuration not stated) | inconclusive: 0.005 µM [cytotoxic, full curve, poor fit] |
| O=C(CCNS(=O)(=O)c1ccc2c(c1)CCN2C(=O)C1CC1)N1CCN(c2ccccc2F)CC1 | inactive |
| CCOC(=O)c1c(C)[nH]c(CCC(=O)NCCCN2CCN(c3cc(C)ccc3C)CC2)c1C | inconclusive: 35.5 µM [cytotoxic, partial curve, poor fit] |

| SMILES | Potency |
| --- | --- |
| CC(C)CN(CCCNC(=O)CN1C(=O)COc2ccc(S(=O)(=O)N3CCCCCC3)cc21)CC(C)C | inconclusive: 7.94 µM [cytotoxic, partial curve, poor fit] |
| Cc1cc(Nc2sc(C(=O)c3ccc(F)cc3)c(N)c2C(=O)Nc2ccc(F)cc2)ccc1Cl | inactive |
| Cc1ccc(Cl)cc1N1CCN(CCCNc2ncnc3onc(-c4ccc(F)cc4)c23)CC1 | inactive |
| COc1cccc(-n2c(=O)c3sc4ccccc4c3n(CC(=O)Nc3ccc(F)cc3F)c2=O)c1 | inconclusive: 31.6 µM [cytotoxic, single point] |
| COC(=O)c1ccccc1NC(=O)c1cc2nc(-c3ccccc3)cc(-c3ccccc3)n2n1 | inconclusive: 3.16 µM [cytotoxic, single point] |
| COc1ccc2nc3sc(C(=O)Nc4cc(Cl)c(OC)cc4OC)cc3cc2c1 | active: 10 µM |
| Nc1c(C(=O)Nc2cccc(Cl)c2)sc2nc3c(cc12)CN(Cc1ccccc1)CC3 | inconclusive: 35.5 µM [cytotoxic, single point] |
| Cc1ccc(NS(=O)(=O)c2ccc3c4c(cccc24)C(=O)N3)c(C)c1 | inconclusive: 31.6 µM [cytotoxic, single point] |
| CC1=C(c2ccc(C)cc2)S(=O)(=O)N=C1N1CCN(c2ccccc2)CC1 | inconclusive: 6.31 µM [cytotoxic, partial curve] |
| Cc1cc2c(cc3c(SCc4ccc(Cl)cc4)nnc(C)n32)o1 | inconclusive: 0.0501 µM [cytotoxic, full curve, poor fit] |
| Cc1cccc2c1-c1sc(C(=O)NCCc3ccc(Cl)cc3)cc1CO2 | inconclusive: 10 µM [cytotoxic, partial curve] |
| COc1ccc(NC(=O)c2ccc3c(c2)c(C)c(C)n3Cc2ccc(F)cc2)cc1 | inconclusive: 14.1 µM [cytotoxic, partial curve] |
| CC(=O)c1cccc(NC(=O)c2noc3c2CSc2ccccc2-3)c1 | inactive |
| COc1ccccc1NC(=O)CCn1nc(-c2ccccc2)c2ccccc2c1=O | inconclusive: 35.5 µM [cytotoxic, single point] |
| CCn1cnc2cc(NCc3ccc(N(C)C)cc3)ccc21 | inconclusive: 31.6 µM [cytotoxic, single point] |
| COc1cccc(/C=N/NC(=O)c2[nH]nc3c2CCc2ccccc2-3)c1O | inconclusive: 0.708 µM [cytotoxic, single point] |
| Cc1ccc(CSc2nc3cccnc3n2Cc2nc(-c3ccccc3F)oc2C)cc1 | inconclusive: 20 µM [cytotoxic, partial curve] |
| Cc1cccc(NC(=O)Cn2c(=O)oc3cc(S(=O)(=O)N4CCCCCC4)ccc32)c1 | inconclusive: 20 µM [cytotoxic, single point] |
| N#C/C(=N\Nc1ccccc1F)C(=N)N1CCCCC1 | inconclusive: 11.2 µM [cytotoxic, partial curve] |
| Cc1cccc(C)c1NC(=O)c1cc2sccc2n1Cc1ccc(F)cc1 | inconclusive: 25.1 µM [cytotoxic, partial curve, poor fit] |
